{
  "source": "PubChem BioAssay (NCATS)",
  "note": "Where “and” joins values, the source holds several entries; their conditions need not be identical. Identical values can stand only once. Inconclusive results, whose numbers are uncertain, are shown with a selection of clear calls. Potencies beside an inconclusive call are fits to weak or partial responses and may not hold up. Calls of active or inactive are those of the source. Calls come from the whole dose curve; as a rule, active = well fitted inhibition curve with a large enough effect; inconclusive = small, poorly fitted or top-dose-only effect; inactive = flat fitted curve, though single readings scatter. % is set by controls: 0 for no effect and ±100 for the full control effect; potency is the fitted concentration of half-maximal effect; tags give direction and shape of the fitted curve.",
  "data": [
    {"test_system": "MKL-2", "test": "qHTS assay to identify novel small-molecules to repurpose for Merkel cell carcinoma treatment (AID 1296009); note: nearly all actives have a fitted effect of over 60% in size", "conditions": "MCC and control cell lines, CellTiter-Glo viability, 72 h; activity change, negative = cytotoxicity: at 46 µM (top of the series)", "summary_of_the_method": "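Dose-response viability screen; 72 hr exposure at 37 degree celsius; CellTiter-Glo added, 10 min room temperature, luminescence read; RLUs scaled between no-cell and DMSO wells.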", "values": [
      {"smiles": "CC1(C)S[C@H]2[C@H](NC(=O)[C@@H](N)c3ccc(O)cc3)C(=O)N2[C@@H]1C(=O)O", "Potency": "active: 4.18 µM"},
      {"smiles": "CCOC(=O)C1=C[C@]2(CC)CCCN3CCc4c(n1c1ccccc41)[C@@H]32", "Potency": "inconclusive: 37.2 µM [inhibitor, single point] and inconclusive: 33.5 µM [inhibitor, single point]"},
      {"smiles": "CCCc1cc(=O)[nH]c(=S)[nH]1", "Potency": "inconclusive: 3.72 µM [inhibitor, full curve, poor fit]"},
      {"smiles": "Cc1ccc(C(=O)c2cc(O)c(O)c([N+](=O)[O-])c2)cc1", "Potency": "inconclusive: 23.5 µM [inhibitor, partial curve]"},
      {"smiles": "C[C@@H]1CCO[C@H]2Cn3cc(C(=O)NCc4ccc(F)cc4F)c(=O)c(O)c3C(=O)N12", "Potency": "inconclusive: 18.7 µM [inhibitor, partial curve]"},
      {"smiles": "CC1(C)SCCN(S(=O)(=O)c2ccc(OCC#CCO)cc2)[C@@H]1C(=O)NO", "activity change, negative = cytotoxicity": "inactive: -13.4%"},
      {"smiles": "CC[C@H](NC(=O)[C@H](C)NC)C(=O)N1C[C@@H](O)C[C@H]1Cc1c(-c2[nH]c3cc(F)ccc3c2C[C@H]2C[C@H](O)CN2C(=O)[C@H](CC)NC(=O)[C@H](C)NC)[nH]c2cc(F)ccc12", "Potency": "inconclusive: 9.35 µM [inhibitor, full curve]"},
      {"smiles": "Nc1ncnc2c1nc(Cl)n2[C@@H]1O[C@H](CO)[C@@H](O)[C@@H]1O", "Potency": "inconclusive: 23.5 µM [inhibitor, single point]"},
      {"smiles": "CCOC(=O)C1=C(N)Oc2ccc(Br)cc2C1C(C#N)C(=O)OCC", "note": "(stereo not given)", "activity change, negative = cytotoxicity": "inactive: -25.7%"},
      {"smiles": "CCCCC(C)(C)[C@H](O)C=C[C@H]1[C@H](O)CC(=O)[C@H]1CC=CCCCC(=O)O", "Potency": "inconclusive: 18.7 µM [inhibitor, partial curve]"},
      {"smiles": "CC(=O)O[C@]1(C(C)=O)CC[C@@H]2[C@@H]3C[C@H](C)C4=CC(=O)CC[C@]4(C)[C@H]3CC[C@@]21C", "Potency": "inconclusive: 23.5 µM [inhibitor, single point]"},
      {"smiles": "CN(CCOc1ccc(NS(C)(=O)=O)cc1)CCc1ccc(NS(C)(=O)=O)cc1", "Potency": "inactive"},
      {"smiles": "CN1CCN(CCCN2c3ccccc3Sc3ccc(Cl)cc32)CC1", "Potency": "inconclusive: 18.8 µM [inhibitor, single point]"},
      {"smiles": "CCC(=O)NC[C@H](Cc1ccc(OCCc2nc(-c3ccccc3)oc2C)cc1)NC(C)=CC(=O)c1ccc(C(F)(F)F)cc1", "Potency": "inconclusive: 1.66 µM [inhibitor, partial curve, poor fit]"},
      {"smiles": "CN(C)C1CCN(C(=O)c2ccc(NC(=O)Nc3nc(N4CCOCC4)nc(N4CCOCC4)n3)cc2)CC1", "Potency": "active: 0.296 µM"},
      {"smiles": "CN(C)N=Nc1nc[nH]c1C(N)=O", "Potency": "inconclusive: 16.6 µM [inhibitor, single point]"},
      {"smiles": "CC(C)C[C@H](CC(=O)O)C(=O)N[C@@H](Cc1c[nH]c2ccccc12)C(=O)N[C@@H](C)c1ccccc1", "Potency": "inconclusive: 1.18 µM [inhibitor, full curve, poor fit]"},
      {"smiles": "COc1ccc(Cc2ccc(NC(N)=O)cc2)cc1-c1cccc(Cl)c1", "activity change, negative = cytotoxicity": "inactive: 0.183%"},
      {"smiles": "COc1ccc(-c2nc3ccc(C4=NNC(=O)CC4C)cc3[nH]2)cc1", "note": "(stereo not given)", "Potency": "inconclusive: 5.96 µM [inhibitor, full curve]"},
      {"smiles": "COc1ccc2cc(-c3nc(-c4ccc(S(C)=O)cc4)[nH]c3-c3ccncc3)ccc2c1", "note": "(stereo not given)", "Potency": "inconclusive: 37.2 µM [inhibitor, single point]"},
      {"smiles": "COc1ccccc1OCCNCC(O)COc1cccc2[nH]c3ccccc3c12", "note": "(stereo not given)", "Potency": "active: 16.8 µM and inconclusive: 7.43 µM [inhibitor, single point]"},
      {"smiles": "NS(=O)(=O)c1ccc(NC2=CC(=O)c3ccccc3C2=O)cc1", "Potency": "inconclusive: 13.2 µM [inhibitor, partial curve, poor fit]"},
      {"smiles": "COC1=C(OC)C(=O)C(CCCCCCCCCCO)=C(C)C1=O", "Potency": "inconclusive: 23.7 µM [inhibitor, single point] and inconclusive: 26.4 µM [inhibitor, single point]"},
      {"smiles": "Clc1ccc(C(Cn2ccnc2)OCc2c(Cl)cccc2Cl)c(Cl)c1", "note": "(stereo not given)", "Potency": "inconclusive: 26.6 µM [inhibitor, single point]"},
      {"smiles": "CC(C)(Cc1ccc2ccccc2c1)NC[C@@H](O)COc1cccc(Cl)c1C#N", "Potency": "inconclusive: 20.9 µM [inhibitor, single point]"},
      {"smiles": "CO[C@H]1C[C@@H]2CC[C@@H](C)[C@@](O)(O2)C(=O)C(=O)N2CCCC[C@@H]2C(=O)O[C@H]([C@@H](C)C[C@@H]2CC[C@H](O)[C@H](OC)C2)CC(=O)[C@H](C)C=C(C)[C@@H](O)[C@@H](OC)C(=O)[C@H](C)C[C@H](C)C=CC=CC=C1C", "Potency": "inconclusive: 6.62 µM [inhibitor, partial curve, poor fit]"},
      {"smiles": "COc1cc2c(cc1Cc1cccc(Cl)c1F)c(=O)c(C(=O)O)cn2[C@H](CO)C(C)C", "Potency": "active: 18.7 µM"},
      {"smiles": "C[C@@]1(C(=O)Nc2ccc(F)nc2)CCCN1c1nc(Nc2cc(C3CC3)[nH]n2)c2cccn2n1", "Potency": "inconclusive: 0.0332 µM [inhibitor, full curve, poor fit]"},
      {"smiles": "Cc1ccc(-n2[nH]c(C)c(N=Nc3cccc(-c4cccc(C(=O)O)c4)c3O)c2=O)cc1C", "Potency": "inconclusive: 16.8 µM [inhibitor, partial curve]"},
      {"smiles": "Cc1ccc2c(c1)C(=O)[C@]1(O)CCN(c3ccccc3)C1=N2", "activity change, negative = cytotoxicity": "inactive: -11.3%"},
      {"smiles": "CCC[C@H](N[C@@H](C)C(=O)N1[C@@H]2CCCC[C@H]2C[C@H]1C(=O)O)C(=O)OCC", "activity change, negative = cytotoxicity": "inactive: -6.83%"},
      {"smiles": "O=c1ccc2ccc(O)c(O)c2o1", "Potency": "inconclusive: 20.9 µM [inhibitor, single point]"},
      {"smiles": "Cc1ccc(C2=Nc3ccc(Cl)cc3OC2)cc1", "Potency": "inconclusive: 14.8 µM [inhibitor, partial curve]"},
      {"smiles": "CC(=O)SCC(Cc1ccccc1)C(=O)NCC(=O)OCc1ccccc1", "note": "(stereo not given)", "Potency": "active: 0.209 µM"},
      {"smiles": "Cn1cnc2c1c(=O)[nH]c(=O)n2C", "Potency": "inconclusive: 16.6 µM [inhibitor, partial curve, poor fit]"}
    ]}
  ]
}
